For 1 molecule, koff and Kd results are on record in publication PMC10764310, “Shape morphing of hydrogels by harnessing enzyme enabled mechanoresponse” (Nature Communications, 2024).

The target of experiment [1] is thrombin-SNAP. Kind of experiment: AFM-based single-molecule force spectroscopy; Thr-S and Hir-S attached through their SNAP proteins to BS-modified coverslips and cantilevers; PBS, room temperature; pulling speeds 200 to 1600 nm/s; off rate from a two-state Bell-Evans model fit. The note with it: both partners purified.
The target in experiment [2] is thrombin-SNAP. Kind of experiment: ITC; Hir-S (108 uM) in the syringe titrated into Thr-S (26.2 uM) in the cell; PBS, pH 7.4; 25 °C; Kd the average of triplicate measurements. The note with it: both partners purified. On the technique in general: In ITC the heat of successive injections is recorded.

Usually koff stands for the first-order rate constant of dissociation. What is called Kd is the free concentration of one partner at which half of the binding sites on the other are occupied at equilibrium, for simple one-to-one binding. Higher therefore signals a looser complex.

B1: hirudin-SNAP (natural protein)
chain: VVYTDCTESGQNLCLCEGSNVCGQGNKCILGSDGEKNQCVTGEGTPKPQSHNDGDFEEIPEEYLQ
Molecule B1 displayed a koff in experiment [1] of 2.6 s⁻¹. For the same molecule, the Kd in experiment [2] is around 1 nM.
